Measurements published in the supplement of paper PMC3334620.
In all, about 33,000 sequences were measured (“E-score (-0.5 to 0.5)”: median about -0.01, highest 2% from about 0.26 on). The list shows a part of the results.

The sequences below were run against Ste12 (UniProt P13574) (assay: PBM E-score (8-mer binding enrichment) (E-score (-0.5 to 0.5)); higher = stronger / more preferred TF binding; most listed sequences are background and not binding sites). Conditions: protein concentration: 200 nM; construct: GST-DNA-binding domain.
Outline: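 The E-score, a modified Wilcoxon-Mann-Whitney statistic, was computed by the Universal PBM Analysis Suite for every ungapped eight-base word pooled with its reverse complement. Scans behind it were normalised with masliner after bound GST-tagged yeast transcription factors were detected with fluorescent anti-GST. The proteins, at about 100-200 nM, had been applied to universal all-10-mer Agilent arrays made double-stranded by primer extension.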

| Sequence | PBM E-score |
| --- | --- |
| GTGTCGCA | 0.087 |
| GGGAGACA | -0.131 |
| AATGTGCC | -0.152 |
| GCGTTACC | -0.13 |
| CCGCGAGC | -0.133 |
| CACCAGTC | -0.222 |
| ATCGTAGG | -0.0943 |
| GCGACACA | 0.0605 |
| AGATTGCA | 0.0114 |
| CGTAGATA | -0.122 |
| CCGGGCAA | -0.0289 |
| ATATAATG | -0.0272 |
| ACTGTGGG | -0.0905 |
| CCCCGCTA | 0.135 |
| GGTCGTTA | -0.0562 |
| GGGTAGCA | -0.0648 |
| TCACCAGA | -0.0558 |
| CCTAACCA | 0.2 |
| AGAGACCG | -0.184 |
| GCCCAATA | -0.00934 |
| ATTGTCAC | 0.086 |
| TACAATAA | -0.0434 |
| GGGACGAC | -0.248 |
| AGCGACGA | -0.148 |
| TACCATAA | 0.175 |

| Sequence | PBM E-score |
| --- | --- |
| GTGCCACA | -0.304 |
| ATGTTGCA | 0.00732 |
| AAAGGTCA | 0.0359 |
| AAGAGCGC | -0.00431 |
| ACCCCCGG | -0.146 |
| GGAACACA | -0.0414 |
| ACTATCCC | -0.15 |
| CGGGTAAG | -0.135 |
| CGTTAAAA | -0.00084 |
| CTTGGAGC | -0.236 |
| GCACCTCC | 0.0167 |
| CATGGAGC | -0.0519 |
| GCCGTATA | 0.168 |
| AAAGCGGA | 0.0831 |
| CATCCGAA | 0.117 |
| CGGCCGTC | -0.175 |
| CACTGCCC | -0.185 |
| AGGCGGCG | -0.00081 |
| ACTATTCG | -0.0254 |
| CTGACATA | 0.0958 |
| CGGCACTA | 0.0668 |
| AAATCTTA | 0.218 |
| CTTTCGTC | 0.00288 |
| CCAAGAAG | -0.0885 |
| CCGCATAA | 0.22 |

| Sequence | PBM E-score |
| --- | --- |
| CGATTCGC | 0.0897 |
| GCCGACGA | 0.17 |
| ACGTAGAC | -0.231 |
| CGAACTAC | -0.0296 |
| ACTATAAC | -0.0368 |
| CTGAGAGC | -0.214 |
| AGAGGTCC | 0.0463 |
| ACAGTAGC | -0.145 |
| GATTGCAA | 0.143 |
| AGATGCGC | -0.106 |
| CCCGGTAG | -0.103 |
| CTCATCCA | 0.0168 |
| TTGGGAAA | 0.231 |
| ATCTTACA | 0.00715 |
| CGTAAAGC | -0.0333 |
| TAATATCA | 0.181 |
| AGAAAAGC | 0.127 |
| GACGAGAA | 0.0115 |
| GGCGCACA | 0.0457 |
| AGGACACT | -0.173 |
| TACTAGGA | 0.131 |
| CCAATCGG | 0.0393 |
| ACCGAGCC | 0.00701 |
| ACCCAATC | 0.0585 |
| AGAACCAA | 0.0474 |

| Sequence | PBM E-score |
| --- | --- |
| AGGATTGA | 0.0179 |
| CTGGGCGC | -0.00387 |
| AGCAATCG | -0.00294 |
| CAATTGGG | -0.0554 |
| GACTGGCA | 0.0106 |
| GAGTGATA | 0.0321 |
| AACGCCAA | 0.146 |
| AGAAGGAG | -0.115 |
| ATGGCCGG | -0.0835 |
| CCCGCTCA | 0.105 |
| ATGTGGCC | -0.142 |
| AGTGTGGC | 0.00736 |
| GGAACCCA | -0.0382 |
| CATTCCAG | -0.177 |
| ATCTTGTC | 0.042 |
| CCTTCGCG | 0.028 |
| CGCATGGA | -0.189 |
| CATTATGG | 0.0151 |
| CTCTCTGA | -0.104 |
| CTAACCGA | -0.00732 |
| CATTGTTA | 0.124 |
| TACCACGA | -0.0329 |
| CGAAGCTC | -0.115 |
| GGACTCGA | 0.0506 |
| ATACGGTC | -0.0962 |

| Sequence | PBM E-score |
| --- | --- |
| ATTGCGCA | -0.0424 |
| ATTGGTTC | 0.176 |
| CGACACAC | -0.00212 |
| AGACAGAG | -0.0113 |
| ATGCAGCC | -0.0138 |
| CGGAATGA | 0.078 |
| AAGCGAGG | 0.0113 |
| CAAAACCG | 0.0137 |
| GATCGAGA | 0.092 |
| AGGCGCAG | -0.121 |
| GATATATA | 0.246 |
| CGCTATGC | -0.163 |
| TGCTCTAA | -0.148 |
| ACTACTTC | -0.0884 |
| CAGTCTAC | -0.259 |
| CGGCAACC | 0.0387 |
| AGGGAAAT | -0.107 |
| CCTTCATC | -0.0404 |
| GGTATAAA | 0.126 |
| GAATGCTA | -0.108 |
| GACCGCTA | -0.0916 |
| TAACATAA | 0.275 |
| GCCATTCC | -0.221 |
| ATTCTGTG | 0.0752 |
| GGCTTCTA | -0.0179 |

| Sequence | PBM E-score |
| --- | --- |
| ACACCACC | -0.046 |
| CGATTAGA | -0.074 |
| GGTACCTA | -0.213 |
| AGACTAGG | -0.136 |
| ATCTTAGG | 0.007 |
| AACCTCGT | -0.0276 |
| ATCAGATA | 0.0702 |
| CGGATAGA | 0.144 |
| CCCACAGA | -0.0144 |
| GTGGTGGA | -0.00239 |
| GACTAAAC | 0.00709 |
| TCTATACA | -0.0534 |
| CAAGCGTG | -0.128 |
| AATCCGAC | -0.0163 |
| CGTACTAA | -0.0054 |
| AGTGGGCG | -0.105 |
| GAAAGATA | 0.148 |
| GGTGGCCA | -0.111 |
| CGCTCCGA | 0.127 |
| ACAATGGA | 0.107 |
| ACGCTTCC | -0.107 |
| CGACTGAA | 0.148 |
| CTGTACTC | -0.247 |
| ACCCCCCA | -0.218 |
| GCTCATAA | 0.0263 |

| Sequence | PBM E-score |
| --- | --- |
| ATCAGGTC | -0.0413 |
| AATAATCG | 0.145 |
| AGTGTCCC | -0.0708 |
| GATGGGTA | -0.0514 |
| AAAGTGGC | -0.0173 |
| AAACATGA | 0.321 |
| TCTCTTAA | 0.0542 |
| ACCGGTAG | -0.093 |
| ACGGATAC | 0.0745 |
| CTTTGACA | -0.0728 |
| CACCAGCC | -0.164 |
| CTTCGCAA | 0.0529 |
| GGGCCATA | -0.0166 |
| TATAGCGA | -0.00451 |
| CACAAGTC | -0.138 |
| GGCCTGGA | -0.15 |
| ATGATAAT | 0.13 |
| ATGCTCGA | -0.0368 |
| CCGTCCCA | 0.0602 |
| AGATAACC | -0.0669 |
| ACTACCAA | -0.114 |
| ACCGCGGA | 0.0698 |
